Experimental findings from patent publication EP4714971A1 (Shanghai Hansoh Biomedical Co., Ltd., dated 2024) are described below.

One assay addresses T1, SEZ6L-Fc protein (human, UniProt Q9BYH1 29-958, limits assumed).
T1 construct: The construct is not described beyond its name; also called SEZ6L protein; Human SEZ6L1; not shown: Fc
T1 sequence (looked up): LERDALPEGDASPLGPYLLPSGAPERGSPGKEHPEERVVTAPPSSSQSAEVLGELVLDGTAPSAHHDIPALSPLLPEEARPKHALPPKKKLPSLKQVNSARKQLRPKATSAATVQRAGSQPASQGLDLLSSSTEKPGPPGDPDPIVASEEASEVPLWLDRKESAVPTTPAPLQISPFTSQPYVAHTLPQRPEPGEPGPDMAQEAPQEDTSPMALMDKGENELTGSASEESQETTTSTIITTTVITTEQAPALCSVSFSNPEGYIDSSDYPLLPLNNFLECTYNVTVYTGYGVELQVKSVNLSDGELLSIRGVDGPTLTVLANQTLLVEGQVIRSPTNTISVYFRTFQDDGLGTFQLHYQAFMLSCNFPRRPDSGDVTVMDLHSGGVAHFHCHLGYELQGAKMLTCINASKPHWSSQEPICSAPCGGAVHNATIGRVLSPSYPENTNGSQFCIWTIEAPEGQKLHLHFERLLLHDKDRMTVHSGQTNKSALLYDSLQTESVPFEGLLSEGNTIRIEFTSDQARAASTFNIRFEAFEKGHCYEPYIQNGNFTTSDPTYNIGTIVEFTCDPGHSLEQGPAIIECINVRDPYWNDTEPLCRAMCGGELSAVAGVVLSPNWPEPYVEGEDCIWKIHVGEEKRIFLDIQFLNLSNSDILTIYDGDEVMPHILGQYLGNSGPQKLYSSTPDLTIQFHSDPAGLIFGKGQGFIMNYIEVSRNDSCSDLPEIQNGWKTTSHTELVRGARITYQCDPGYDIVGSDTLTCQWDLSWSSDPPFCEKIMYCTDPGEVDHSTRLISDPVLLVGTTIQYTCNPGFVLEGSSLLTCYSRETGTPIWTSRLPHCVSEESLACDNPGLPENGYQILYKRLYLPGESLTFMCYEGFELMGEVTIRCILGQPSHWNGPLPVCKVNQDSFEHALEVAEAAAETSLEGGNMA
The assay is described as follows: ELISA, coated Fc fusion protein at 1 ug/mL. (In an ELISA, binding on a coated surface is turned into a signal by an enzyme label.)

The target in a further assay is T2, SEZ6L2-Fc (human, UniProt Q6UXD5 28-844, limits assumed).
T2 construct: The construct is not described beyond its name; also called SEZ6L2 protein; Human SEZ6L2; not shown: Fc
The assay is described as follows: ELISA, coated Fc fusion protein at 1 ug/mL.

Assay [1] concerns the target T3, human SEZ6 expressed on stably transfected CHO-K1 cells (human, UniProt Q53EL9 20-994).
T3 construct: also called CHO-SEZ6; hSEZ6
T3 sequence: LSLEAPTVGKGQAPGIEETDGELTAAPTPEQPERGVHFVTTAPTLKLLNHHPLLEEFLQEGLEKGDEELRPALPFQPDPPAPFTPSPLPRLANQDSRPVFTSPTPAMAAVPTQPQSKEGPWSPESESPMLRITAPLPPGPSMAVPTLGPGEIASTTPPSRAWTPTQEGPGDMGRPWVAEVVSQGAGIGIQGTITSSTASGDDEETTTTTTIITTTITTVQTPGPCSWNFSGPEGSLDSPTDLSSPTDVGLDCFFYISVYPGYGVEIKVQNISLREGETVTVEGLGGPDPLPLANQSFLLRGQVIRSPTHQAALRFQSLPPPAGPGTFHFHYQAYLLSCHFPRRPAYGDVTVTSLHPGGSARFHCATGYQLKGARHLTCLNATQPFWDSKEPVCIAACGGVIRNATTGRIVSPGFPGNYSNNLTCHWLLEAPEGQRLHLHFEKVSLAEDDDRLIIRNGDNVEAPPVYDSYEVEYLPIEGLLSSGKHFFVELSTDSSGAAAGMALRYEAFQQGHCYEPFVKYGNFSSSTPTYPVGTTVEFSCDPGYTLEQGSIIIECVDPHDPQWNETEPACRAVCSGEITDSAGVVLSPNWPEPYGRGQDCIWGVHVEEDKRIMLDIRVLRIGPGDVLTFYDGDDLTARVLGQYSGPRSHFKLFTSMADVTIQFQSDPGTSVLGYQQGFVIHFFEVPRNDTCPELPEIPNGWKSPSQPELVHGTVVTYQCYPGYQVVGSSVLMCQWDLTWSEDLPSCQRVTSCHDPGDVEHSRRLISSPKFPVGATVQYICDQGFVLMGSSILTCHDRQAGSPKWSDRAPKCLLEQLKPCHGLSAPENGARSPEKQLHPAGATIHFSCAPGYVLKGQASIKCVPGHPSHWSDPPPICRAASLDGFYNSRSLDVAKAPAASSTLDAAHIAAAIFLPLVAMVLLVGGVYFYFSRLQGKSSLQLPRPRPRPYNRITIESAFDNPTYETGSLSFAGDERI
The assay is described as follows: flow cytometry on CHO-K1 cells expressing human SEZ6. A general note: Flow cytometry measures light scatter and fluorescence of single cells or particles in a stream.

Assay [2] addresses T4, Recombinant human SEZ6-His6 protein (human, UniProt Q53EL9 20-925).
T4 construct: also called His-tagged SEZ6 antigen
T4 sequence: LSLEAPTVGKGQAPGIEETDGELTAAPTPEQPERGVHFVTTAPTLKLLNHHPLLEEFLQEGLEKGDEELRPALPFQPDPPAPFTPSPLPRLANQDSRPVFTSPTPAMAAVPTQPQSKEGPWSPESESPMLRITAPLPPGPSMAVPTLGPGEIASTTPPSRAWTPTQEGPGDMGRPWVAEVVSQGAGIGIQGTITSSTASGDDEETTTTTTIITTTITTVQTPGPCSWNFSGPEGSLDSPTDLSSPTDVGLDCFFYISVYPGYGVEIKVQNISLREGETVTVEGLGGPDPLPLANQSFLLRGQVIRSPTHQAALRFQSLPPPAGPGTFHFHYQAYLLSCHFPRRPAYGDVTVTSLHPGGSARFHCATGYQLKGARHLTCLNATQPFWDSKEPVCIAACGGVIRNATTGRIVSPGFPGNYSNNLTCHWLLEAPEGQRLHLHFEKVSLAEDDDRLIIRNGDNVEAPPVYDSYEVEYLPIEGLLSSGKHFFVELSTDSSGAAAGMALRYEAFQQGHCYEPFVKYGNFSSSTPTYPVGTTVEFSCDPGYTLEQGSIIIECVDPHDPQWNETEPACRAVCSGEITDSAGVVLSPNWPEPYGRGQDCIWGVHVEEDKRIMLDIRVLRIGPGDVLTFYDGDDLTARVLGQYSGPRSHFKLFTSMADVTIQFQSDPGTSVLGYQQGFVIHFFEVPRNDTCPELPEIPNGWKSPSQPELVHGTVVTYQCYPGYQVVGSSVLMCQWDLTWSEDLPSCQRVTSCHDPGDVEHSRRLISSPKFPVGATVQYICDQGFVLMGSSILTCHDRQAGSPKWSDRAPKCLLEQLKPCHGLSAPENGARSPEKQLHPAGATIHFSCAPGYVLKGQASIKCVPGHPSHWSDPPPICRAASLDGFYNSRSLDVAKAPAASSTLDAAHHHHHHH
The assay is described as follows: SPR (BIAcore 8K), antibody captured on protein A chip, SEZ6-His6 as analyte, 1:1 Langmuir model. (In SPR one partner is held on a chip, and binding of the other changes the refractive index at the surface.)

The target of assay [3] is T5, Recombinant monkey SEZ6-His6 protein (cynomolgus monkey, UniProt Q53EL9 20-925 (human entry)).
T5 construct: also called Cynomolgus monkey SEZ6-His6
T5 chain: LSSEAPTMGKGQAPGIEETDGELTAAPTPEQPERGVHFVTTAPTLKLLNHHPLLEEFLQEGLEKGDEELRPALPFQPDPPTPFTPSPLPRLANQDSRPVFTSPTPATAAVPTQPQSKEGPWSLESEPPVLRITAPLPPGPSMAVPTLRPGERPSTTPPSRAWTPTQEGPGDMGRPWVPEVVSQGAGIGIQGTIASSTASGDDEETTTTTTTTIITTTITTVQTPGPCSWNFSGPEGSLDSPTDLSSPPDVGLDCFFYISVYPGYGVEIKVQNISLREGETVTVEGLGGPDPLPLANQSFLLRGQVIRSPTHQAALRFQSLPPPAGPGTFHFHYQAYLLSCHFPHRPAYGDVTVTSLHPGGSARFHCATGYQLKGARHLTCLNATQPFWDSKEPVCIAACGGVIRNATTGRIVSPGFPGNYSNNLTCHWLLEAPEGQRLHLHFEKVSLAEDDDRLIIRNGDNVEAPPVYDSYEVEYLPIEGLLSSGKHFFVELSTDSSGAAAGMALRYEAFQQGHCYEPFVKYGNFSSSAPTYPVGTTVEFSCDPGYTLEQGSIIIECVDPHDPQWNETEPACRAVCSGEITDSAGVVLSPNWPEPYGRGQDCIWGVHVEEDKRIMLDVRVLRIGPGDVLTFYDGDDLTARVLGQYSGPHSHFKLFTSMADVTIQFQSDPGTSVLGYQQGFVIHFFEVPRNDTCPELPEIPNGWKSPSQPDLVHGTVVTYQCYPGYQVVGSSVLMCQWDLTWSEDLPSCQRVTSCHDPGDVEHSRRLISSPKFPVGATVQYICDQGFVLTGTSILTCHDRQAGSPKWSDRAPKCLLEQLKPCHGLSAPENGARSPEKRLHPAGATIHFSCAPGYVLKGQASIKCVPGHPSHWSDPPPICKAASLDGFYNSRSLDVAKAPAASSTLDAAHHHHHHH
The description is as above.

SEZ6L2-Fc, sequence (Q6UXD5 28-844 limits assumed): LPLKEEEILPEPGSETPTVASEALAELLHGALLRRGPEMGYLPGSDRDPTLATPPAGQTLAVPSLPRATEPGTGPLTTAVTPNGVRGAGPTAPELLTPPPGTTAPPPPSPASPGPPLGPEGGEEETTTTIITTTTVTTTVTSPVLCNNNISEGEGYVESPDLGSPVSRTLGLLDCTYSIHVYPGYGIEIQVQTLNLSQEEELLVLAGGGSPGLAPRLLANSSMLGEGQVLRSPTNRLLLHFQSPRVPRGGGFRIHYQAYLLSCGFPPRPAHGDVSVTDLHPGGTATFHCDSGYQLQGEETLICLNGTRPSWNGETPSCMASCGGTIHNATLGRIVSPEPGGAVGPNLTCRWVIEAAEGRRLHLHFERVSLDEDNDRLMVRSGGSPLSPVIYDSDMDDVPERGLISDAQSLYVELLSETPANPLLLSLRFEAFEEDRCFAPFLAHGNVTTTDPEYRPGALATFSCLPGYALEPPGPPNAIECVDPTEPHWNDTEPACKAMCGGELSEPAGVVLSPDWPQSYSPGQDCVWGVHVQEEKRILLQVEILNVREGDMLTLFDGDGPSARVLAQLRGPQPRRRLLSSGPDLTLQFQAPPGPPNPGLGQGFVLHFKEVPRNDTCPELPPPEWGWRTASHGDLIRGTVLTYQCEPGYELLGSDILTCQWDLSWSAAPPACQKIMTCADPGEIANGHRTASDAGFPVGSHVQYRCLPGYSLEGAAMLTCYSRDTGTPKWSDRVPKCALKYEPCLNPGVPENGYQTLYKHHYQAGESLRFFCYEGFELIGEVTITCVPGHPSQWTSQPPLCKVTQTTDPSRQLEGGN

B1: PR0071 (Fc fusion)
chain: HVQLVESGGGLVQPGGSLRLSCAVSGFTSSRGWMAWFRQAPGKEREGVAVIGRRSGDIYYADSLKGRFTISHDNAKNSLYLQMNSLRAEDTATYYCAVGDQAGHVLTSSPYRYWGQGTMVTVSS[skipping human IgG1 Fc with C220S (EU numbers)]
notes: also called humanized antibody of cAb314; humanized nanobody
In general, EC50 refers to the midpoint of the concentration-response curve. Broadly, the Kd is the free concentration of one partner at which half of the binding sites on the other are occupied at equilibrium, for simple one-to-one binding. Usually koff stands for the rate constant with which the complex falls apart. By kon is commonly meant the rate constant with which the complex forms. On to B1, for which, in the assay with SEZ6L-Fc protein, the binding result was “no binding (tested: 10 nM)”. Besides, the binding result in the assay with SEZ6L2-Fc is “no binding (tested: 10 nM)”. Moreover, in assay [1], the midpoint of the response, the EC50, lay at 0.07 nM and the MFImax was determined as 5340. Besides, in assay [2], the Kd worked out at 2 nM, the koff was 0.000513 s⁻¹ and the kon worked out at 257000 M⁻¹ s⁻¹. In assay [3], the Kd stood at 4.03 nM, the koff was determined as 0.000665 s⁻¹ and the kon was 165000 M⁻¹ s⁻¹.

B2: PR0069 (Fc fusion)
chain: EVQLVESGGGLVQPGGSLRLSCAASGFTFSKDCMAWFRQAPGKGREGVAIISGVGRTRYADSVKGRFTISRDNAKNSLYLQMNSLRAEDTAVYYCAAQRASSSCGSLSRAWYDYWGRGTLVTVSS[skipping human IgG1 Fc with C220S (EU numbers)]
notes: also called humanized antibody of cAb025; humanized nanobody
In assay [1], B2 showed a 50% effective concentration (EC50) of 0.05 nM and an MFImax of 4580.
